Positions count from the first letter of the chain named. The list shows a part of the results.
T1: RBFOX1 RRM (Homo sapiens, UniProt Q9NWB1 109-208)
T1 sequence: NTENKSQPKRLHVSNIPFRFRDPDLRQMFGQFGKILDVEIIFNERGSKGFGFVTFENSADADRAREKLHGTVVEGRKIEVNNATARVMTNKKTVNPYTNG

B1: ACCAGGA (DNA:RNA)
RNA: GGGAGACCGGAAUUCAGAUUGUCCACCAGGAUUAAAUCCCGUCGUAGCCACCA
DNA 1: CAATCTGAATTCCGGTCTCCC
DNA 2: TGGTGGCTACGACGGGATT
B2: CCUUGCA (DNA:RNA)
RNA: B1 RNA with A25C, C27U, A28U, G30C
DNA 1: CAATCTGAATTCCGGTCTCCC
DNA 2: TGGTGGCTACGACGGGATT
B3: UACGAAC (DNA:RNA)
RNA: B1 RNA with A25U, C26A, A28G, G29A, G30A, A31C
DNA 1: CAATCTGAATTCCGGTCTCCC
DNA 2: TGGTGGCTACGACGGGATT
B4: ACUUUCG (DNA:RNA)
RNA: B1 RNA with C27U, A28U, G29U, G30C, A31G
DNA 1: CAATCTGAATTCCGGTCTCCC
DNA 2: TGGTGGCTACGACGGGATT
B5: AGAAGGC (DNA:RNA)
RNA: B1 RNA with C26G, C27A, A31C
DNA 1: CAATCTGAATTCCGGTCTCCC
DNA 2: TGGTGGCTACGACGGGATT
B6: AGGGCUU (DNA:RNA)
RNA: B1 RNA with C26G, C27G, A28G, G29C, G30U, A31U
DNA 1: CAATCTGAATTCCGGTCTCCC
DNA 2: TGGTGGCTACGACGGGATT
B7: UCGCCGU (DNA:RNA)
RNA: B1 RNA with A25U, C27G, A28C, G29C, A31U
DNA 1: CAATCTGAATTCCGGTCTCCC
DNA 2: TGGTGGCTACGACGGGATT
B8: GUGUGCG (DNA:RNA)
RNA: B1 RNA with A25G, C26U, C27G, A28U, G30C, A31G
DNA 1: CAATCTGAATTCCGGTCTCCC
DNA 2: TGGTGGCTACGACGGGATT
B9: AUGGGCA (DNA:RNA)
RNA: B1 RNA with C26U, C27G, A28G, G30C
DNA 1: CAATCTGAATTCCGGTCTCCC
DNA 2: TGGTGGCTACGACGGGATT
B10: CGCUUCC (DNA:RNA)
RNA: B1 RNA with A25C, C26G, A28U, G29U, G30C, A31C
DNA 1: CAATCTGAATTCCGGTCTCCC
DNA 2: TGGTGGCTACGACGGGATT
B11: UUUAUGU (DNA:RNA)
RNA: B1 RNA with A25U, C26U, C27U, G29U, A31U
DNA 1: CAATCTGAATTCCGGTCTCCC
DNA 2: TGGTGGCTACGACGGGATT
B12: CUUGUCC (DNA:RNA)
RNA: GGGAGACCGGAAUUCAGAUUGUCCCUUGUCCUUAAAUCCCGUCGUAGCCACCA
DNA 1: CAATCTGAATTCCGGTCTCCC
DNA 2: TGGTGGCTACGACGGGATT
B13: AGGUGAG (DNA:RNA)
RNA: B1 RNA with C26G, C27G, A28U, G30A, A31G
DNA 1: CAATCTGAATTCCGGTCTCCC
DNA 2: TGGTGGCTACGACGGGATT
B14: UGGGACC (DNA:RNA)
RNA: B12 RNA with C25U, U26G, U27G, U29A
DNA 1: CAATCTGAATTCCGGTCTCCC
DNA 2: TGGTGGCTACGACGGGATT
B15: GUACCUA (DNA:RNA)
RNA: B1 RNA with A25G, C26U, C27A, A28C, G29C, G30U
DNA 1: CAATCTGAATTCCGGTCTCCC
DNA 2: TGGTGGCTACGACGGGATT
B16: AAACUAG (DNA:RNA)
RNA: B1 RNA with C26A, C27A, A28C, G29U, G30A, A31G
DNA 1: CAATCTGAATTCCGGTCTCCC
DNA 2: TGGTGGCTACGACGGGATT
B17: GUCAGAA (DNA:RNA)
RNA: B1 RNA with A25G, C26U, G30A
DNA 1: CAATCTGAATTCCGGTCTCCC
DNA 2: TGGTGGCTACGACGGGATT
B18: UAAUUAG (DNA:RNA)
RNA: B12 RNA with C25U, U26A, U27A, G28U, C30A, C31G
DNA 1: CAATCTGAATTCCGGTCTCCC
DNA 2: TGGTGGCTACGACGGGATT
B19: CGCAGCU (DNA:RNA)
RNA: B1 RNA with A25C, C26G, G30C, A31U
DNA 1: CAATCTGAATTCCGGTCTCCC
DNA 2: TGGTGGCTACGACGGGATT
B20: CUAAGGC (DNA:RNA)
RNA: B1 RNA with A25C, C26U, C27A, A31C
DNA 1: CAATCTGAATTCCGGTCTCCC
DNA 2: TGGTGGCTACGACGGGATT

What follows are binders tested against T1, RBFOX1 RRM (assay: EMSA; HiTS-Eq, 1 nM pool, 10 min; buffer printed only for the single-RNA assays: 10 mM Tris pH 7.5, 150 mM NaCl, 3.4 mM EDTA, 0.001% NP-40, 30 C). Conditions: tags: His6 N-terminal (pET28a); label: 5' 32P.
How it was run: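 Relative association constants, normalised to the cognate motif, were derived by comparing read counts of each RNA species with those of the control reaction. The RNA sequenced was the free fraction, separated by 8% native PAGE after a 10 min equilibration in 50 µL of 1 nM 5′-radiolabelled RNA (7 randomized nucleotides) with increasing concentrations of purified wild-type or mutant RbFox RRM.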
With B1 the binding signal was 0.00385 KA relative to UGCAUGU. B2 was tested, and the binding signal was 0.0157 KA relative to UGCAUGU. For B3, the binding signal was 0.00432 KA relative to UGCAUGU. With B4 the binding signal was 0.0143 KA relative to UGCAUGU. With B5 the binding signal was 0.00991 KA relative to UGCAUGU. B6 was tested, and the binding signal was 0.0189 KA relative to UGCAUGU. For B7, the binding signal was 0.0106 KA relative to UGCAUGU. B8 was tested, and the binding signal was 0.0191 KA relative to UGCAUGU. For B9, the binding signal was 0.0198 KA relative to UGCAUGU. For B10, the binding signal was 0.0114 KA relative to UGCAUGU. With B11 the binding signal was 0.0163 KA relative to UGCAUGU. With B12 the binding signal was 0.0101 KA relative to UGCAUGU. With B13 the binding signal was 0.0128 KA relative to UGCAUGU. With B14 the binding signal was 0.0142 KA relative to UGCAUGU. B15 was tested, and the binding signal was 0.00499 KA relative to UGCAUGU. For B16, the binding signal was 0.00102 KA relative to UGCAUGU. In the case of B17, the binding signal is reported as 0.0136 KA relative to UGCAUGU. For B18, the binding signal was 0.0193 KA relative to UGCAUGU. In the case of B19, the binding signal is reported as 0.00757 KA relative to UGCAUGU. With B20 the binding signal was 0.00788 KA relative to UGCAUGU.

Reference: article PMC9911399, “Two distinct binding modes provide the RNA-binding protein RbFox with extraordinary sequence specificity”
